The labels stand for the following.
T1: RBFOX1 RRM (Homo sapiens, UniProt Q9NWB1 109-208)
T1 sequence: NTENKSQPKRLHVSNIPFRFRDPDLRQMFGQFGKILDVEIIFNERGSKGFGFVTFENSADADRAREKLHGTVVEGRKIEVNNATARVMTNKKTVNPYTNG

B1: AGGGACC (DNA:RNA)
RNA: GGGAGACCGGAAUUCAGAUUGUCCAGGGACCUUAAAUCCCGUCGUAGCCACCA
DNA 1: CAATCTGAATTCCGGTCTCCC
DNA 2: TGGTGGCTACGACGGGATT
B2: UUUGCUC (DNA:RNA)
RNA: B1 RNA with A25U, G26U, G27U, A29C, C30U
DNA 1: CAATCTGAATTCCGGTCTCCC
DNA 2: TGGTGGCTACGACGGGATT
B3: UAGACGG (DNA:RNA)
RNA: B1 RNA with A25U, G26A, G28A, A29C, C30G, C31G
DNA 1: CAATCTGAATTCCGGTCTCCC
DNA 2: TGGTGGCTACGACGGGATT
B4: GUUCGCU (DNA:RNA)
RNA: B1 RNA with A25G, G26U, G27U, G28C, A29G, C31U
DNA 1: CAATCTGAATTCCGGTCTCCC
DNA 2: TGGTGGCTACGACGGGATT
B5: CGAAGAC (DNA:RNA)
RNA: B1 RNA with A25C, G27A, G28A, A29G, C30A
DNA 1: CAATCTGAATTCCGGTCTCCC
DNA 2: TGGTGGCTACGACGGGATT
B6: UGUCACU (DNA:RNA)
RNA: B1 RNA with A25U, G27U, G28C, C31U
DNA 1: CAATCTGAATTCCGGTCTCCC
DNA 2: TGGTGGCTACGACGGGATT
B7: AAUCAGC (DNA:RNA)
RNA: B1 RNA with G26A, G27U, G28C, C30G
DNA 1: CAATCTGAATTCCGGTCTCCC
DNA 2: TGGTGGCTACGACGGGATT
B8: CACACGA (DNA:RNA)
RNA: GGGAGACCGGAAUUCAGAUUGUCCCACACGAUUAAAUCCCGUCGUAGCCACCA
DNA 1: CAATCTGAATTCCGGTCTCCC
DNA 2: TGGTGGCTACGACGGGATT
B9: AAGUCGU (DNA:RNA)
RNA: B8 RNA with C25A, C27G, A28U, A31U
DNA 1: CAATCTGAATTCCGGTCTCCC
DNA 2: TGGTGGCTACGACGGGATT
B10: GAGCCUA (DNA:RNA)
RNA: B8 RNA with C25G, C27G, A28C, G30U
DNA 1: CAATCTGAATTCCGGTCTCCC
DNA 2: TGGTGGCTACGACGGGATT
B11: GACAUAA (DNA:RNA)
RNA: B8 RNA with C25G, C29U, G30A
DNA 1: CAATCTGAATTCCGGTCTCCC
DNA 2: TGGTGGCTACGACGGGATT
B12: ACGUGGA (DNA:RNA)
RNA: B1 RNA with G26C, G28U, A29G, C30G, C31A
DNA 1: CAATCTGAATTCCGGTCTCCC
DNA 2: TGGTGGCTACGACGGGATT
B13: GGCGGUA (DNA:RNA)
RNA: B1 RNA with A25G, G27C, A29G, C30U, C31A
DNA 1: CAATCTGAATTCCGGTCTCCC
DNA 2: TGGTGGCTACGACGGGATT
B14: UGUCAAG (DNA:RNA)
RNA: B1 RNA with A25U, G27U, G28C, C30A, C31G
DNA 1: CAATCTGAATTCCGGTCTCCC
DNA 2: TGGTGGCTACGACGGGATT
B15: UACUUGU (DNA:RNA)
RNA: B8 RNA with C25U, A28U, C29U, A31U
DNA 1: CAATCTGAATTCCGGTCTCCC
DNA 2: TGGTGGCTACGACGGGATT
B16: UGUUGGG (DNA:RNA)
RNA: B1 RNA with A25U, G27U, G28U, A29G, C30G, C31G
DNA 1: CAATCTGAATTCCGGTCTCCC
DNA 2: TGGTGGCTACGACGGGATT
B17: ACGAUCG (DNA:RNA)
RNA: B1 RNA with G26C, G28A, A29U, C31G
DNA 1: CAATCTGAATTCCGGTCTCCC
DNA 2: TGGTGGCTACGACGGGATT
B18: GAGGGAC (DNA:RNA)
RNA: B1 RNA with A25G, G26A, A29G, C30A
DNA 1: CAATCTGAATTCCGGTCTCCC
DNA 2: TGGTGGCTACGACGGGATT
B19: GGAUGUC (DNA:RNA)
RNA: B1 RNA with A25G, G27A, G28U, A29G, C30U
DNA 1: CAATCTGAATTCCGGTCTCCC
DNA 2: TGGTGGCTACGACGGGATT
B20: ACGCAUG (DNA:RNA)
RNA: B1 RNA with G26C, G28C, C30U, C31G
DNA 1: CAATCTGAATTCCGGTCTCCC
DNA 2: TGGTGGCTACGACGGGATT
B21: AAGUAAU (DNA:RNA)
RNA: B1 RNA with G26A, G28U, C30A, C31U
DNA 1: CAATCTGAATTCCGGTCTCCC
DNA 2: TGGTGGCTACGACGGGATT
B22: UUGGUAA (DNA:RNA)
RNA: B1 RNA with A25U, G26U, A29U, C30A, C31A
DNA 1: CAATCTGAATTCCGGTCTCCC
DNA 2: TGGTGGCTACGACGGGATT
B23: AUCAGGG (DNA:RNA)
RNA: B8 RNA with C25A, A26U, C29G, A31G
DNA 1: CAATCTGAATTCCGGTCTCCC
DNA 2: TGGTGGCTACGACGGGATT
B24: CUCACAU (DNA:RNA)
RNA: B8 RNA with A26U, G30A, A31U
DNA 1: CAATCTGAATTCCGGTCTCCC
DNA 2: TGGTGGCTACGACGGGATT
B25: CCUGUAU (DNA:RNA)
RNA: B1 RNA with A25C, G26C, G27U, A29U, C30A, C31U
DNA 1: CAATCTGAATTCCGGTCTCCC
DNA 2: TGGTGGCTACGACGGGATT
B26: CUAGGGG (DNA:RNA)
RNA: B8 RNA with A26U, C27A, A28G, C29G, A31G
DNA 1: CAATCTGAATTCCGGTCTCCC
DNA 2: TGGTGGCTACGACGGGATT
B27: UUACCUU (DNA:RNA)
RNA: B8 RNA with C25U, A26U, C27A, A28C, G30U, A31U
DNA 1: CAATCTGAATTCCGGTCTCCC
DNA 2: TGGTGGCTACGACGGGATT
B28: UCUUCGA (DNA:RNA)
RNA: B8 RNA with C25U, A26C, C27U, A28U
DNA 1: CAATCTGAATTCCGGTCTCCC
DNA 2: TGGTGGCTACGACGGGATT
B29: UGCGCAA (DNA:RNA)
RNA: B8 RNA with C25U, A26G, A28G, G30A
DNA 1: CAATCTGAATTCCGGTCTCCC
DNA 2: TGGTGGCTACGACGGGATT
B30: CGUACUU (DNA:RNA)
RNA: B8 RNA with A26G, C27U, G30U, A31U
DNA 1: CAATCTGAATTCCGGTCTCCC
DNA 2: TGGTGGCTACGACGGGATT
B31: CGACCAU (DNA:RNA)
RNA: B8 RNA with A26G, C27A, A28C, G30A, A31U
DNA 1: CAATCTGAATTCCGGTCTCCC
DNA 2: TGGTGGCTACGACGGGATT

Numbering of substitutions follows the chain as printed; changes in the protein carry UniProt numbers. Some of the results follow.

The assay deals with T1, RBFOX1 RRM. Description: EMSA; HiTS-Eq, 1 nM pool, 10 min; buffer printed only for the single-RNA assays: 10 mM Tris pH 7.5, 150 mM NaCl, 3.4 mM EDTA, 0.001% NP-40, 30 C. The following applies: tags: His6 N-terminal (pET28a); label: 5' 32P. An outline of the steps:
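Purified wild-type or mutant RbFox RRM at increasing concentrations was equilibrated with 1 nM of 5′-radiolabelled RNA carrying 7 randomized nucleotides for 10 min in 50 µL. Unbound RNA was separated by 8% native PAGE and sequenced. Relative association constants came from read-count changes of each RNA species compared with the control reaction, normalised to the cognate motif.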
On to B1, for which the binding signal is 0.0155 KA relative to UGCAUGU. For B2, the binding signal is 0.03 KA relative to UGCAUGU.

For the molecule B3, the binding signal was 0.00945 KA relative to UGCAUGU. Next, B4: 0.0193 KA relative to UGCAUGU; B5: 0.00991 KA relative to UGCAUGU; B6: 0.0131 KA relative to UGCAUGU. Take B7: the binding signal was 0.00434 KA relative to UGCAUGU. B8: the binding signal was 0.00123 KA relative to UGCAUGU.

With B9, the binding signal is 0.00628 KA relative to UGCAUGU. Next, B10: 0.00398 KA relative to UGCAUGU; B11: 0.00169 KA relative to UGCAUGU; B12: 0.00677 KA relative to UGCAUGU. Next, B13: 0.0148 KA relative to UGCAUGU.

Consider B14, for which the binding signal was 0.0144 KA relative to UGCAUGU.

Consider B15, for which the binding signal was 0.0167 KA relative to UGCAUGU. As to B16, the binding signal is 0.00877 KA relative to UGCAUGU. With B17, the binding signal was 0.00868 KA relative to UGCAUGU. With B18, the binding signal is 0.0115 KA relative to UGCAUGU. As for B19, the binding signal is 0.027 KA relative to UGCAUGU. For B20, the binding signal was 0.697 KA relative to UGCAUGU. In the case of B21, the binding signal was 0.0019 KA relative to UGCAUGU. Regarding B22, the binding signal is 0.0207 KA relative to UGCAUGU. B23: the binding signal is 0.00469 KA relative to UGCAUGU. Next, B24: 0.00243 KA relative to UGCAUGU. For the molecule B25, the binding signal is 0.00795 KA relative to UGCAUGU.

With B26, the binding signal was 0.00429 KA relative to UGCAUGU. On to B27, for which the binding signal was 0.00126 KA relative to UGCAUGU. Next, B28: 0.0117 KA relative to UGCAUGU; B29: 0.0152 KA relative to UGCAUGU; B30: 0.0053 KA relative to UGCAUGU.

Take B31: the binding signal was 0.00205 KA relative to UGCAUGU.

The record behind these values is PMC9911399, “Two distinct binding modes provide the RNA-binding protein RbFox with extraordinary sequence specificity”.
